Survival data for 56 compounds are collected here from PubChem BioAssay AID463173 (ICCB-Longwood Screening Facility, Harvard Medical School, 2010).

In all, about 52,000 compounds went through this assay and about 1,700 (3.3%) were called active. Cut-off read from the data, not from the text of the source: active = survival mostly below about 52% (no sharp cut-off); inactive = mostly above about 56%. The list shows a part of the results.

The experiment has as its system Wild type. The experiment can be described thus: growth inhibition of S. aureus wild type versus tarO mutant, primary screen, teichoic acid synthesis inhibitors, RN4220, OD600 (AID 463173). The settings on record: S. aureus RN4220 wild type/DeltatarO growth, OD600, 18 h, hits give low values, screened at 18.75 µg/mL (by protocol).
Regarding `Cc1ccc(CNC(=O)CN2C(=O)C3CCCCN3c3ccc(C(=O)N4CCCC4)cc32)cc1` (stereo unspecified), the survival was inactive: 81%.

As for `O=C(NCc1ccccc1Cl)c1ccc2c(O)c(S(=O)(=O)c3ccccc3)c(=O)[nH]c2c1`, the survival is inactive: 91%.

On to `COc1ccc(Cl)cc1C(=O)Nc1ccc(-c2nnc3n2CCCCC3)cc1`, for which the survival was inactive: 68%.

On to `COc1cccc(Cn2c(=O)n(-c3ccccc3C)c(=O)c3c2c2cc(C)ccc2n3C)c1`, for which the survival was inactive: 99%.

On to `COc1cccc(NC(=O)C2CCN(C(=O)N3CC(C)Oc4ccccc43)CC2)c1` (stereo unspecified), for which the survival was inactive: 102%.

On to `O=C(NCCSc1c(-c2ccc(F)cc2)[nH]c2ccccc12)c1ccc(S(=O)(=O)N2CCOCC2)cc1`, for which the survival was inactive: 106%.

Take `Cc1ccc(C)c(NC(=O)CN(CCc2ccccc2)S(=O)(=O)c2ccccc2)c1`: the survival was inactive: 69%.

Take `Cc1cccc(Cc2c(C)nc3nc(SCc4ccccc4C)nn3c2C)c1`: the survival was inactive: 87%.

In the case of `CC(=O)c1ccc(NC(=O)CCc2c(C)nc3cc(-c4ccc(Cl)cc4)nn3c2C)cc1`, the survival is inactive: 73%.

As for `COc1cccc(-n2c(SCc3ccccc3C)nc3c([nH]c4ccccc43)c2=O)c1`, the survival is inactive: 81%.

Consider `Cc1ccc(C)c(N2CCN(c3cc(C)nc4c(-c5ccc(Cl)cc5)c(C)nn34)CC2)c1`, for which the survival is inactive: 96%.

For the compound `Cc1cc(C)cc(OCC(=O)NCC2(N(C)C)CCCCC2)c1`, the survival was inactive: 110%.

For the compound `CCc1nn(CC(=O)NC(C)c2ccccc2)c(=O)c2cc3sccc3n12` (stereo unspecified), the survival was inactive: 91%.

Turning to `CCOC(=O)C1=C(CS(=O)(=O)c2ccc(F)cc2)NC(=O)NC1c1ccc(OCC)c(OC)c1` (stereo unspecified), the survival is inactive: 132%.

For the compound `CC(C)CCNC(=O)[C@@H](c1ccccc1)N1Cc2ccccc2C1=O`, the survival is inactive: 55%.

For the compound `CCOc1ccc(NC(=O)Cn2nnc(C(=O)Nc3ccc(OCC)cc3)c2N)cc1`, the survival is inactive: 85%.

`Cc1cccc(N2C(=O)C3C(C(=O)NC4CC4)C4C=CC3(O4)C2C(=O)NC2CCCC2)c1` (stereo unspecified): the survival was inactive: 106%.

Take `Cc1ccc(S(=O)(=O)N2CCC(c3ccncc3)CC2)c(C)c1`: the survival was inactive: 121%.

On to `CCCc1cc(=O)n2[nH]c(NCc3ccccc3OC)nc2n1`, for which the survival is inactive: 113%.

As to `Cn1c(=O)c2c(n(C)c1=O)=NC1(CCCCC1)ON=2`, the survival was inactive: 108%.

For the compound `O=C(COc1ccccc1-c1nc(-c2ccccc2)no1)Nc1ccccc1[N+](=O)[O-]`, the survival was inactive: 55%.

As to `CCOC(=O)c1c(C)n(CC)c2cc(Br)c(O)cc12`, the survival was inactive: 93%.

As to `CC(=O)Nc1ccc(C2Nc3c(C)cc(C)cc3-c3cc(C)nn32)cc1` (stereo unspecified), the survival is inactive: 141%.

As for `Cc1ccc(S(=O)(=O)NCCSc2nnnn2-c2ccc(Cl)c(C(=O)O)c2)cc1`, the survival is inactive: 126%.

In the case of `COc1cc(OC)c(NS(=O)(=O)c2ccc3c(c2)NC(=O)CCS3)cc1Cl`, the survival was inactive: 129%.

For the compound `CCOC(=O)c1ccc(NC(=O)C(Cc2ccccc2)NS(=O)(=O)c2ccc(Br)s2)cc1` (stereo unspecified), the survival was inactive: 97%.

Turning to `Cc1cc(C)cc(Nc2sc(C(=O)c3ccccc3)c(N)c2S(=O)(=O)c2ccccc2)c1`, the survival was inactive: 78%.

Consider `CCOC(=O)c1c(C)oc2nc(C)nc(NCc3ccccc3OCC)c12`, for which the survival was inactive: 124%.

Consider `Cc1cc(NNC(=O)c2ccccc2)nc(NNC(=O)c2ccccc2)n1`, for which the survival is inactive: 103%.

With `CCOc1ccc(S(=O)(=O)NCc2ccc3c(c2)OCO3)cc1`, the survival is inactive: 116%.

As for `CCCc1nc2ccccc2n2c(-c3cccc(C)c3)c3c(=O)n(C)c(=O)n(C)c3c12`, the survival was inactive: 75%.

Consider `O=C(NCc1ccccc1Cl)C1CCCN(c2ncnc3onc(-c4ccc(F)cc4)c23)C1` (stereo unspecified), for which the survival is inactive: 65%.

With `COC(=O)Cn1c(=O)c2c(nc3n2CCN3c2ccc(F)cc2)n(C)c1=O`, the survival is inactive: 84%.

Turning to `CSc1nnc(C2CCCN2Cc2cccnc2)n1C` (stereo unspecified), the survival is inactive: 104%.

In the case of `CSc1ccc(CNC(=O)c2ccc(NC(=O)c3nsc4ccccc34)cc2)cc1`, the survival was inactive: 119%.

For `O=C(NCc1ccccc1Cl)NCc1noc2ccccc12`, the survival is inactive: 78%.

Consider `COc1cccc(-n2c(SCC(=O)c3ccc(Cl)cc3)nc3c([nH]c4ccccc43)c2=O)c1`, for which the survival is inactive: 45%.

Consider `Cc1ccc(C(c2nnnn2C2CCCC2)N(Cc2cccnc2)CC2CCCO2)cc1` (stereo unspecified), for which the survival is inactive: 106%.

Consider `Cc1ccc(CNS(=O)(=O)c2ccc(-c3cc(C(F)(F)F)on3)s2)cc1`, for which the survival was inactive: 75%.

As for `Nc1c(C(=O)Nc2ccccc2)nnn1Cc1ccc(F)cc1Cl`, the survival was inactive: 106%.

Take `Cc1ccc(N2C(=O)[C@@H]3CSC(c4ccc(F)cc4)N3C2=O)cc1` (stereo partly specified): the survival is inactive: 79%.

On to `CCOc1ccccc1C(=O)Nc1nc2c(s1)CC(C)CC2` (stereo unspecified), for which the survival was inactive: 86%.

Consider `COc1ccc(Cl)cc1NC(=O)Cn1c(=O)n(CCC(=O)NCc2ccc3c(c2)OCO3)c(=O)c2ccccc21`, for which the survival is inactive: 93%.

Take `NC(=S)N/N=C/c1ccccc1OCC(=O)O`: the survival was inactive: 96%.

Turning to `Cc1ccccc1NC(=O)Cn1c(=O)n(CC2CCC(C(=O)NCCc3ccccc3)CC2)c(=O)c2ccccc21` (stereo unspecified), the survival was inactive: 102%.

For the compound `CCCCn1nc(CC(=O)O)c2ccccc2c1=O`, the survival is inactive: 101%.

Regarding `COc1cc(NC(=O)COCc2cc(-c3ccc(F)cc3)on2)cc(OC)c1OC`, the survival was inactive: 76%.

As to `O=C(Nc1ccc(Cl)c(-c2nc3cc(Cl)ccc3o2)c1)c1cc([N+](=O)[O-])ccc1N1CCOCC1`, the survival is inactive: 141%.

`Cc1ccc(C(=O)Nc2cc3c(cc2N2CCCC2)n(C)c(=O)c(=O)n3C)cc1`: the survival is inactive: 73%.

As to `Cc1nn(C(C)(C)C)c(OC(=O)C(C)(C)C)c1Sc1ccccc1`, the survival was active: -9%.

For the compound `CC(=O)Nc1ccc(NC(=O)Cn2nc(C(=O)Nc3ccc(C)cc3)ccc2=O)cc1`, the survival is inactive: 126%.

On to `CCOc1ccc(-c2cc3c(=O)n(CC(=O)NCc4ccc(Cl)cc4)ccn3n2)cc1`, for which the survival is inactive: 69%.

Consider `O=C(O)CCn1cnc2onc(-c3cc(F)cc(F)c3)c2c1=O`, for which the survival is inactive: 87%.

`CCCOc1ccc(Oc2nc(NCC(C)C)nc(N3CCOCC3)n2)nn1`: the survival was inactive: 84%.

With `Clc1ccc(CSc2ncn[nH]2)cc1`, the survival was inactive: 114%.

Take `Cn1cc(C(=O)N2CCN(c3cccc(C(F)(F)F)c3)CC2)c2c3ccccc3n(C)c2c1=O`: the survival is inactive: 31%.
